Laboratory results reported in PMC3418226.
These are yes or no findings as the source states them, for the method shown. Binding seen in cells or lysates may run through a third protein. Some binding calls cover weakened binding; strength is not graded here. Where a sequence is shown, tags or fusion partners need not be part of it.

Protein sequences, listed by entry. Tags and fused reporters are not part of them. Lines headed by an entry give the natural chain unless they say otherwise; changes in a name come on top. Chains listed by the source or under a name are the forms on record and can include a tag or linker. Residues count along the entry.
myc-CD3ζ Y72FY83F (P20963-1, form named): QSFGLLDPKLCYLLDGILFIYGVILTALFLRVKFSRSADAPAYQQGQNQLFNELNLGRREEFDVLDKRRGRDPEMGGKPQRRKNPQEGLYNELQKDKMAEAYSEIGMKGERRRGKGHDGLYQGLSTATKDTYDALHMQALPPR
myc-CD3ζ-Y72F (P20963-1, form named): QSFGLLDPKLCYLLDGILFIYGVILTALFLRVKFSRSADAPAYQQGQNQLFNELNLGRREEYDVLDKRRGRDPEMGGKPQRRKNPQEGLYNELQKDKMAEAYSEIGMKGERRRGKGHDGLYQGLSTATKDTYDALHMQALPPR
myc-CD3ζ-Y83F (P20963-1, form named): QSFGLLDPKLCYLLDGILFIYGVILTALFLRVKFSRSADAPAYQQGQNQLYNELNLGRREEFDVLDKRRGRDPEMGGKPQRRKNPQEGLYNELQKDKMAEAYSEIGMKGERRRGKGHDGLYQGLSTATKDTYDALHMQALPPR
UniProt Q96DU3, residues 22-332: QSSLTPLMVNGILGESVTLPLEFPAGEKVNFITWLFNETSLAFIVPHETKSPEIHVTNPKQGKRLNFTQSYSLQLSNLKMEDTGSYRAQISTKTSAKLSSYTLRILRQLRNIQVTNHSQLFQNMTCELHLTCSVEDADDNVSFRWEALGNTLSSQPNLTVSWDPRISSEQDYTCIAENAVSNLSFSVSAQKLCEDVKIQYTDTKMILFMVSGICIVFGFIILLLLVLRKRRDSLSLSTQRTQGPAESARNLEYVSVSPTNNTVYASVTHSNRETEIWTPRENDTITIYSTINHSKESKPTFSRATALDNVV

Key:
[1] = biological target: T1, GST-SAP fusion protein (UniProt O60880); assay: pull-down; purified GST-SAP added to precleared lysates of T-cell blasts (PBL) stimulated or not with UCHT-1 for 10 min; glutathione-sepharose, 4°C; blots for phosphotyrosine or CD3ζ; only the target purified
T1 sequence: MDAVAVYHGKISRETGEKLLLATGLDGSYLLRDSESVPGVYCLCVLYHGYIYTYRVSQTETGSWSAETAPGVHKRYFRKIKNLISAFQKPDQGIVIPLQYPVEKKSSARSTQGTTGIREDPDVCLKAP

[2] = biological target: T1, GST-SAP fusion protein; assay: pull-down; purified GST-SAP (2-5 μg) added to precleared whole cell lysates of Jurkat cells, untreated or stimulated with UCHT-1 (10 min) or 25 μM pervanadate (30 min); glutathione-sepharose, 4°C; blots for phosphotyrosine, NTB-A or CD3ζ; only the target purified
[3] = biological target: T1, GST-SAP fusion protein; assay: pull-down; purified GST-SAP added to precleared lysates of HeLa cells transfected with myc-CD3ζ constructs, 48 h, treated with pervanadate; glutathione-sepharose; anti-Myc (9E10) blot; only the target purified

Substance	binding [1]	binding [2]	binding [3]
CD3ζ from activated T cells, tyrosine-phosphorylated p20-21 forms (from UniProt P20963-1 22-164)	binds	binds	–
NTB-A (from UniProt Q96DU3 22-332) (receptor)	–	binds	–
myc-CD3ζ Y72FY83F (from UniProt P20963-1 22-164)	–	–	no binding
myc-CD3ζ-Y72F (from UniProt P20963-1 22-164)	–	–	binds

Results, then the substance that gave them:

binding [1]	binding [2]	binding [3]	Substance
–	–	binds	myc-CD3ζ-WT (from UniProt P20963-1 22-164)
–	–	binds	myc-CD3ζ-Y83F (from UniProt P20963-1 22-164)
